Reference: the supplement of paper PMC4967469
IC50 is the fitted dose that halves viability relative to control wells, and lower means more sensitive; fits outside the tested doses are given as limits. AUC is the area under the same curve over the 256-fold range up to the top dose, as a fraction; the more sensitive the line, the further below 1. The top dose, if marked as inferred, was derived from the fitted curves, not read from the paper.

Assays:
Test in all cases: Viability of human cancer cell lines after 72 h of drug (GDSC screen)
ACHP (KIN001-260) = compound: N#Cc1c(C2CCNCC2)cc(-c2c(O)cccc2OCC2CC2)nc1N [ACHP (KIN001-260)]; conditions: top dose 20 µM; top dose inferred
Experimental: (§1)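 Human cancer cell lines in 384-well plates, medium with 10% serum, drug for 72 h over a 256-fold dose range (nine 2-fold or five 4-fold steps up to the top dose). Adherent lines were fixed and stained with the nucleic acid dye Syto60, suspension lines read with resazurin; signal relative to control wells, capped at 0 and 100%. One two-parameter sigmoid per drug and line, fitted in a mixed model over all curves with the slope shared within a line.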

CH5424802 = compound: CCc1cc2c(cc1N1CCC(N3CCOCC3)CC1)C(C)(C)c1[nH]c3cc(C#N)ccc3c1C2=O [CH5424802]; conditions: top dose 5.12 µM; top dose inferred
Experimental: as §1

XMD8-92 = compound: CCOc1cc(N2CCC(O)CC2)ccc1Nc1ncc2c(n1)N(C)c1ccccc1C(=O)N2C [XMD8-92]; conditions: top dose 10 µM; top dose inferred
Experimental: as §1

CAY10603 = compound: CC(C)(C)OC(=O)Nc1ccc(-c2cc(C(=O)NCCCCCCC(=O)NO)no2)cc1 [CAY10603]; conditions: top dose 20 µM; top dose inferred
Experimental: as §1

| Cell Line | AUC (ACHP (KIN001-260)) | IC50 (ACHP (KIN001-260)) [µM] | AUC (CH5424802) | IC50 (CH5424802) [µM] | AUC (XMD8-92) | IC50 (XMD8-92) [µM] | AUC (CAY10603) | IC50 (CAY10603) [nM] |
| --- | --- | --- | --- | --- | --- | --- | --- | --- |
| NCI-H1792 (lung adenocarcinoma, adherent) | 0.99 | > 20 | 0.96 | > 5.12 | 0.931 | > 10 | 0.852 | 13200 |
| NCI-H1876 (small cell lung carcinoma, adherent) | 0.957 | > 20 | 0.98 | > 5.12 | 0.95 | > 10 | 0.601 | 2370 |
| NCI-H1915 (large cell lung carcinoma, adherent) | 0.943 | > 20 | 0.982 | > 5.12 | 0.968 | > 10 | 0.357 | 498 |
| NCI-H1944 (lung adenocarcinoma, adherent) | 0.889 | > 20 | 0.981 | > 5.12 | 0.944 | > 10 | 0.43 | 792 |
| NCI-H1975 (lung adenocarcinoma, adherent) | 0.975 | > 20 | 0.929 | > 5.12 | 0.926 | > 10 | 0.526 | 1490 |
| NCI-H1993 (lung adenocarcinoma, adherent) | 0.98 | > 20 | 0.975 | > 5.12 | 0.962 | > 10 | 0.755 | 8770 |
| NCI-H2087 (lung adenocarcinoma, semi-adherent) | 0.96 | > 20 | 0.897 | > 5.12 | 0.946 | > 10 | 0.6 | 2400 |
| NCI-H2110 (non-small cell lung carcinoma, adherent) | 0.894 | > 20 | 0.977 | > 5.12 | 0.938 | > 10 | 0.445 | 884 |
| NCI-H2122 (lung adenocarcinoma, adherent) | 0.984 | > 20 | 0.989 | > 5.12 | 0.953 | > 10 | 0.848 | 13500 |
| NCI-H2141 (small cell lung carcinoma, suspension) | 0.989 | > 20 | 0.989 | > 5.12 | 0.99 | > 10 | 0.662 | 3480 |
| NCI-H2291 (lung adenocarcinoma, adherent) | 0.972 | > 20 | 0.983 | > 5.12 | 0.975 | > 10 | 0.976 | > 20000 |
| NCI-H2347 (lung adenocarcinoma, adherent) | 0.966 | > 20 | 0.971 | > 5.12 | 0.87 | > 10 | 0.653 | 3650 |
| NCI-SNU-5 (stomach, suspension) | 0.989 | > 20 | 0.989 | > 5.12 | 0.988 | > 10 | 0.805 | 10300 |
| NCI-SNU-16 (stomach, suspension) | 0.991 | > 20 | 0.991 | > 5.12 | 0.904 | > 10 | 0.862 | 13900 |
| NEC8 (testis, adherent) | 0.946 | > 20 | 0.99 | > 5.12 | 0.962 | > 10 | 0.286 | 347 |
| NH-12 (neuroblastoma, adherent) | 0.921 | > 20 | 0.835 | 3.97 | 0.963 | > 10 | 0.308 | 338 |
| NMC-G1 (glioma, adherent) | 0.959 | > 20 | 0.971 | > 5.12 | 0.939 | > 10 | 0.664 | 3980 |
| NOMO-1 (acute myeloid leukaemia, suspension) | 0.777 | 9.14 | 0.972 | > 5.12 | 0.752 | 3.72 | 0.403 | 654 |
| NOS-1 (osteosarcoma, adherent) | 0.846 | 20 | 0.967 | > 5.12 | 0.925 | > 10 | 0.413 | 685 |
| NTERA-2 cl.D1 (testis, adherent) | 0.961 | > 20 | 0.984 | > 5.12 | 0.846 | 7.16 | 0.475 | 1070 |
| NUGC-4 (stomach, adherent) | 0.949 | > 20 | 0.987 | > 5.12 | 0.81 | 5.28 | 0.595 | 2280 |

| Cell Line | AUC (ACHP (KIN001-260)) | IC50 (ACHP (KIN001-260)) [µM] | AUC (CH5424802) | IC50 (CH5424802) [µM] | AUC (XMD8-92) | IC50 (XMD8-92) [µM] | AUC (CAY10603) | IC50 (CAY10603) [nM] |
| --- | --- | --- | --- | --- | --- | --- | --- | --- |
| NY (osteosarcoma, adherent) | 0.989 | > 20 | 0.989 | > 5.12 | 0.904 | > 10 | 0.988 | > 20000 |
| OACp4C (oesophagus, adherent) | 0.838 | 17.7 | 0.913 | > 5.12 | 0.883 | > 10 | 0.34 | 408 |
| OC-314 (ovary, adherent) | 0.919 | > 20 | 0.991 | > 5.12 | 0.802 | 4.11 | 0.578 | 1970 |
| OCI-AML3 (acute myeloid leukaemia, suspension) | 0.87 | 14.3 | 0.965 | > 5.12 | 0.756 | 2.99 | 0.339 | 481 |
| OCI-AML5 (acute myeloid leukaemia, suspension) | 0.871 | 16.1 | 0.948 | > 5.12 | 0.962 | > 10 | 0.301 | 366 |
| OCI-LY-19 (B-cell lymphoma, suspension) | 0.721 | 4.99 | 0.981 | > 5.12 | 0.912 | > 10 | 0.278 | 310 |
| OCUB-M (breast, adherent) | 0.965 | > 20 | 0.685 | 0.97 | 0.922 | > 10 | 0.378 | 606 |
| OE21 (oesophagus, adherent) | 0.966 | > 20 | 0.963 | > 5.12 | 0.807 | 7.63 | 0.702 | 5790 |
| ONS-76 (medulloblastoma, adherent) | 0.964 | > 20 | 0.979 | > 5.12 | 0.935 | > 10 | 0.501 | 1260 |
| OS-RC-2 (kidney, adherent) | 0.968 | > 20 | 0.956 | > 5.12 | 0.975 | > 10 | 0.621 | 3120 |
| OV-7 (ovary, adherent) | 0.905 | > 20 | 0.855 | > 5.12 | 0.958 | > 10 | 0.571 | 2160 |
| OV-17R (ovary, adherent) | 0.963 | > 20 | 0.946 | > 5.12 | 0.802 | 7.45 | 0.436 | 779 |
| OV-56 (ovary, adherent) | 0.926 | > 20 | 0.892 | > 5.12 | 0.956 | > 10 | 0.618 | 2600 |
| OV-90 (ovary, adherent) | 0.962 | > 20 | 0.978 | > 5.12 | 0.88 | > 10 | 0.702 | 5490 |
| OVCA420 (ovary, adherent) | 0.948 | > 20 | 0.98 | > 5.12 | 0.876 | > 10 | 0.621 | 3010 |
| OVCA433 (ovary, adherent) | 0.983 | > 20 | 0.975 | > 5.12 | 0.824 | 6.84 | 0.649 | 3390 |
| OVCAR-3 (ovary, adherent) | 0.986 | > 20 | 0.987 | > 5.12 | 0.918 | > 10 | 0.987 | > 20000 |
| OVCAR-4 (ovary, adherent) | 0.959 | > 20 | 0.965 | > 5.12 | 0.917 | > 10 | 0.829 | > 20000 |
| OVCAR-8 (ovary, adherent) | 0.873 | 15.8 | 0.989 | > 5.12 | 0.886 | 9.06 | 0.304 | 378 |
| OVISE (ovary, adherent) | 0.952 | > 20 | 0.958 | > 5.12 | 0.952 | > 10 | 0.615 | 2870 |
| OVK-18 (ovary, adherent) | 0.979 | > 20 | 0.985 | > 5.12 | 0.92 | > 10 | 0.973 | > 20000 |

| Cell Line | AUC (ACHP (KIN001-260)) | IC50 (ACHP (KIN001-260)) [µM] | AUC (CH5424802) | IC50 (CH5424802) [µM] | AUC (XMD8-92) | IC50 (XMD8-92) [µM] | AUC (CAY10603) | IC50 (CAY10603) [nM] |
| --- | --- | --- | --- | --- | --- | --- | --- | --- |
| OVKATE (ovary, adherent) | 0.82 | > 20 | 0.967 | > 5.12 | 0.85 | > 10 | 0.604 | 2930 |
| OVTOKO (ovary, adherent) | 0.957 | > 20 | 0.967 | > 5.12 | 0.855 | > 10 | 0.65 | 3670 |
| PANC-02-03 (pancreas, adherent) | 0.938 | > 20 | 0.975 | > 5.12 | 0.883 | > 10 | 0.48 | 1090 |
| PC-14 (lung adenocarcinoma, adherent) | 0.931 | > 20 | 0.85 | 3.25 | 0.946 | > 10 | 0.543 | 1620 |
| PCI-4B (head and neck, adherent) | 0.987 | > 20 | 0.979 | > 5.12 | 0.809 | 4.91 | 0.434 | 834 |
| PCI-6A (head and neck, adherent) | 0.977 | > 20 | 0.983 | > 5.12 | 0.952 | > 10 | 0.307 | 363 |
| PCI-30 (head and neck, adherent) | 0.984 | > 20 | 0.975 | > 5.12 | 0.904 | > 10 | 0.984 | > 20000 |
| PEO1 (ovary, adherent) | 0.928 | > 20 | 0.979 | > 5.12 | 0.889 | > 10 | 0.512 | 1350 |
| PFSK-1 (medulloblastoma, adherent) | 0.967 | > 20 | 0.985 | > 5.12 | 0.799 | 5.12 | 0.656 | 3480 |
| PL4 (pancreas, adherent) | 0.974 | > 20 | 0.987 | > 5.12 | 0.933 | > 10 | 0.712 | 5080 |
| PL-21 (acute myeloid leukaemia, suspension) | 0.859 | > 20 | 0.96 | > 5.12 | 0.844 | 8.95 | 0.586 | 2240 |
| QGP-1 (pancreas, adherent) | 0.939 | > 20 | 0.959 | > 5.12 | 0.951 | > 10 | 0.646 | 4060 |
| RC-K8 (B-cell lymphoma, suspension) | 0.985 | > 20 | 0.993 | > 5.12 | 0.993 | > 10 | 0.679 | 3660 |
| RCC-AB (kidney, adherent) | 0.938 | > 20 | 0.937 | > 5.12 | 0.908 | > 10 | 0.352 | 428 |
| RCC-ER (kidney, adherent) | 0.986 | > 20 | 0.983 | > 5.12 | 0.919 | > 10 | 0.735 | 6400 |
| RCC-FG2 (kidney, adherent) | 0.967 | > 20 | 0.97 | > 5.12 | 0.962 | > 10 | 0.58 | 2200 |
| RCC-JF (kidney, adherent) | 0.956 | > 20 | 0.956 | > 5.12 | 0.933 | > 10 | 0.376 | 544 |
| RCC-JW (kidney, adherent) | 0.952 | > 20 | 0.872 | 5.12 | 0.912 | > 10 | 0.563 | 1860 |
| RCC-MF (kidney, adherent) | 0.944 | > 20 | 0.888 | > 5.12 | 0.917 | > 10 | 0.398 | 604 |
